{"source": "the supplement of paper PMC8728848", "binders": {"B1": {"name": "AMA (Arum maculatun) (protein)", "chain": "MAKLLLLLLLPAIVGLAVPRSAAAVGSNYMLSGETLNTDGRLTNGELTLIMQVDCNLVLYHGGWQSNTANNGRDCKLTLTDFGELVIKSGTGSTVWSSGSKQSMKGNYAAVVHPEGRLVIYGPSVFKINPSGAGLNGLPLRNIPLTNNMLFSGQVLYGDGTLSARNHKLVMQGDCNMVLYGGKYGWQSNTHGNGKYCFAMLTHKGELVIRDDDFKSVWSSKSSSKQGDYVFILQDDSLAIIYGPAVFSTGSKKMISMVTN"}}, "assay_in_all_cases": "glycan array binding signal (z-score within array); higher = stronger binding", "conditions_in_all_cases": "glycan notation: IUPAC condensed, linker removed", "key": {"[1]": {"molecular_target": "GalNAc(a1-3)GalNAc(b1-3)Gal(a1-4)Gal(b1-4)GlcNAc", "summary_of_the_method": "(§1)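 Glycan array data came from 3228 arrays in the Consortium for Functional Glycomics database, and only arrays with an available protein sequence were kept. Glycan names were put into IUPAC-condensed notation, and columns mapping to the same glycan were averaged. The binding signal is a within-array Z-score, averaged across arrays of one protein sequence run at different concentrations or buffers and across linkers. A negative Z-score can be read as non-binding.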"}, "[2]": {"molecular_target": "GalNAc(b1-3)Gal", "summary_of_the_method": "as §1"}, "[3]": {"molecular_target": "GalNAc(b1-3)Gal(a1-4)Gal(b1-4)GlcNAc", "summary_of_the_method": "as §1"}, "[4]": {"molecular_target": "GalNAc(b1-3)Gal(a1-4)Gal(b1-4)GlcNAc(b1-3)Gal(b1-4)Glc", "summary_of_the_method": "as §1"}, "[5]": {"molecular_target": "GalNAc(b1-3)Gal(a1-6)Gal(b1-4)Glc", "summary_of_the_method": "as §1"}, "[6]": {"molecular_target": "GalNAc(b1-3)GalNAc", "summary_of_the_method": "as §1"}, "[7]": {"molecular_target": "GalNAc(b1-3)GlcNAc", "summary_of_the_method": "as §1"}, "[8]": {"molecular_target": "GalNAc(b1-4)Gal(b1-4)Glc", "summary_of_the_method": "as §1"}, "[9]": {"molecular_target": "GalNAc(b1-4)GlcNAc", "summary_of_the_method": "as §1"}, "[10]": {"molecular_target": "GalNAc(b1-4)GlcNAc(b1-2)Man", "summary_of_the_method": "as §1"}, "[11]": {"molecular_target": "GalNAc(b1-4)GlcNAc(b1-2)Man(a1-3)[GalNAc(b1-4)GlcNAc(b1-2)Man(a1-6)]Man(b1-4)GlcNAc(b1-4)GlcNAc", "summary_of_the_method": "as §1"}, "[12]": {"molecular_target": "GalNAc(b1-4)GlcNAc(b1-3)GalNAc(b1-4)GlcNAc", "summary_of_the_method": "as §1"}, "[13]": {"molecular_target": "GalNAc(b1-4)GlcNAc6S", "summary_of_the_method": "as §1"}, "[14]": {"molecular_target": "GalNAc(b1-6)GalNAc", "summary_of_the_method": "as §1"}, "[15]": {"molecular_target": "GalNAc3S(b1-4)GlcNAc", "summary_of_the_method": "as §1"}, "[16]": {"molecular_target": "GalNAc3S(b1-4)GlcNAc3S", "summary_of_the_method": "as §1"}, "[17]": {"molecular_target": "GalNAc3S(b1-4)[Fuc(a1-3)]GlcNAc", "summary_of_the_method": "as §1"}, "[18]": {"molecular_target": "GalNAc4S6S(b1-4)GlcNAc", "summary_of_the_method": "as §1"}, "[19]": {"molecular_target": "GalNAc6S(b1-4)GlcNAc", "summary_of_the_method": "as §1"}, "[20]": {"molecular_target": "Glc(a1-4)Glc", "summary_of_the_method": "as §1"}, "[21]": {"molecular_target": "Glc(a1-4)Glc(a1-4)Glc(a1-4)Glc", "summary_of_the_method": "as §1"}, "[22]": {"molecular_target": "Glc(a1-6)Glc(a1-6)Glc", "summary_of_the_method": "as §1"}, "[23]": {"molecular_target": "Glc(a1-6)Glc(a1-6)Glc(a1-6)Glc", "summary_of_the_method": "as §1"}, "[24]": {"molecular_target": "Glc(b1-4)Glc", "summary_of_the_method": "as §1"}, "[25]": {"molecular_target": "Glc(b1-6)Glc", "summary_of_the_method": "as §1"}, "[26]": {"molecular_target": "GlcA(b1-3)Gal", "summary_of_the_method": "as §1"}, "[27]": {"molecular_target": "GlcA(b1-3)GlcNAc", "summary_of_the_method": "as §1"}, "[28]": {"molecular_target": "GlcA(b1-6)Gal", "summary_of_the_method": "as §1"}, "[29]": {"molecular_target": "GlcA3S(b1-3)Gal(b1-4)GlcNAc(b1-2)Man", "summary_of_the_method": "as §1"}, "[30]": {"molecular_target": "GlcA3S(b1-3)Gal(b1-4)GlcNAc(b1-3)Gal(b1-4)Glc", "summary_of_the_method": "as §1"}, "[31]": {"molecular_target": "GlcNAc(a1-3)Gal(b1-4)GlcNAc", "summary_of_the_method": "as §1"}, "[32]": {"molecular_target": "GlcNAc(a1-4)Gal(b1-3)GlcNAc", "summary_of_the_method": "as §1"}, "[33]": {"molecular_target": "GlcNAc(a1-4)Gal(b1-4)GalNAc", "summary_of_the_method": "as §1"}, "[34]": {"molecular_target": "GlcNAc(a1-4)Gal(b1-4)GlcNAc", "summary_of_the_method": "as §1"}, "[35]": {"molecular_target": "GlcNAc(a1-4)Gal(b1-4)GlcNAc(b1-3)Gal(b1-4)Glc", "summary_of_the_method": "as §1"}, "[36]": {"molecular_target": "GlcNAc(a1-4)Gal(b1-4)GlcNAc(b1-3)Gal(b1-4)GlcNAc", "summary_of_the_method": "as §1"}, "[37]": {"molecular_target": "GlcNAc(a1-4)Gal(b1-4)GlcNAc(b1-3)Gal(b1-4)GlcNAc(b1-3)Gal(b1-4)GlcNAc", "summary_of_the_method": "as §1"}, "[38]": {"molecular_target": "GlcNAc(a1-4)Gal(b1-4)GlcNAc(b1-3)Gal(b1-4)[Fuc(a1-3)]GlcNAc(b1-3)Gal(b1-4)[Fuc(a1-3)]GlcNAc", "summary_of_the_method": "as §1"}, "[39]": {"molecular_target": "GlcNAc(a1-6)Gal(b1-4)GlcNAc", "summary_of_the_method": "as §1"}, "[40]": {"molecular_target": "GlcNAc(b1-2)Gal(b1-3)GalNAc", "summary_of_the_method": "as §1"}, "[41]": {"molecular_target": "GlcNAc(b1-2)Man(a1-3)[GlcNAc(b1-2)Man(a1-6)]Man(b1-4)GlcNAc(b1-4)GlcNAc", "summary_of_the_method": "as §1"}, "[42]": {"molecular_target": "GlcNAc(b1-2)Man(a1-3)[GlcNAc(b1-2)Man(a1-6)]Man(b1-4)GlcNAc(b1-4)[Fuc(a1-6)]GlcNAc", "summary_of_the_method": "as §1"}, "[43]": {"molecular_target": "GlcNAc(b1-2)Man(a1-3)[GlcNAc(b1-4)][GlcNAc(b1-2)Man(a1-6)]Man(b1-4)GlcNAc(b1-4)GlcNAc", "summary_of_the_method": "as §1"}, "[44]": {"molecular_target": "GlcNAc(b1-2)Man(a1-3)[GlcNAc(b1-4)][GlcNAc(b1-2)Man(a1-6)]Man(b1-4)GlcNAc(b1-4)[Fuc(a1-6)]GlcNAc", "summary_of_the_method": "as §1"}, "[45]": {"molecular_target": "GlcNAc(b1-2)[GlcNAc(b1-4)]Man(a1-3)[GlcNAc(b1-2)Man(a1-6)]Man(b1-4)GlcNAc(b1-4)GlcNAc", "summary_of_the_method": "as §1"}}, "note": "The other results are listed elsewhere or left out."}
{"binder": "B1", "values": [{"measurement": "glycan array binding signal (z-score)", "setting": "[1]", "result": -0.187}, {"measurement": "glycan array binding signal (z-score)", "setting": "[2]", "result": -0.217}, {"measurement": "glycan array binding signal (z-score)", "setting": "[3]", "result": -0.206}, {"measurement": "glycan array binding signal (z-score)", "setting": "[4]", "result": -0.214}, {"measurement": "glycan array binding signal (z-score)", "setting": "[5]", "result": -0.217}, {"measurement": "glycan array binding signal (z-score)", "setting": "[6]", "result": -0.214}, {"measurement": "glycan array binding signal (z-score)", "setting": "[7]", "result": -0.219}, {"measurement": "glycan array binding signal (z-score)", "setting": "[8]", "result": -0.203}, {"measurement": "glycan array binding signal (z-score)", "setting": "[9]", "result": -0.207}, {"measurement": "glycan array binding signal (z-score)", "setting": "[10]", "result": -0.217}, {"measurement": "glycan array binding signal (z-score)", "setting": "[11]", "result": 0.184}, {"measurement": "glycan array binding signal (z-score)", "setting": "[12]", "result": -0.22}, {"measurement": "glycan array binding signal (z-score)", "setting": "[13]", "result": -0.222}, {"measurement": "glycan array binding signal (z-score)", "setting": "[14]", "result": -0.223}, {"measurement": "glycan array binding signal (z-score)", "setting": "[15]", "result": -0.22}, {"measurement": "glycan array binding signal (z-score)", "setting": "[16]", "result": -0.217}, {"measurement": "glycan array binding signal (z-score)", "setting": "[17]", "result": -0.216}, {"measurement": "glycan array binding signal (z-score)", "setting": "[18]", "result": -0.215}, {"measurement": "glycan array binding signal (z-score)", "setting": "[19]", "result": -0.222}, {"measurement": "glycan array binding signal (z-score)", "setting": "[20]", "result": -0.218}, {"measurement": "glycan array binding signal (z-score)", "setting": "[21]", "result": -0.21}, {"measurement": "glycan array binding signal (z-score)", "setting": "[22]", "result": -0.22}, {"measurement": "glycan array binding signal (z-score)", "setting": "[23]", "result": -0.208}, {"measurement": "glycan array binding signal (z-score)", "setting": "[24]", "result": -0.212}, {"measurement": "glycan array binding signal (z-score)", "setting": "[25]", "result": -0.203}, {"measurement": "glycan array binding signal (z-score)", "setting": "[26]", "result": -0.204}, {"measurement": "glycan array binding signal (z-score)", "setting": "[27]", "result": -0.214}, {"measurement": "glycan array binding signal (z-score)", "setting": "[28]", "result": -0.211}, {"measurement": "glycan array binding signal (z-score)", "setting": "[29]", "result": -0.218}, {"measurement": "glycan array binding signal (z-score)", "setting": "[30]", "result": -0.212}, {"measurement": "glycan array binding signal (z-score)", "setting": "[31]", "result": -0.207}, {"measurement": "glycan array binding signal (z-score)", "setting": "[32]", "result": -0.2}, {"measurement": "glycan array binding signal (z-score)", "setting": "[33]", "result": -0.204}, {"measurement": "glycan array binding signal (z-score)", "setting": "[34]", "result": -0.211}, {"measurement": "glycan array binding signal (z-score)", "setting": "[35]", "result": -0.213}, {"measurement": "glycan array binding signal (z-score)", "setting": "[36]", "result": -0.205}, {"measurement": "glycan array binding signal (z-score)", "setting": "[37]", "result": -0.206}, {"measurement": "glycan array binding signal (z-score)", "setting": "[38]", "result": -0.201}, {"measurement": "glycan array binding signal (z-score)", "setting": "[39]", "result": -0.195}, {"measurement": "glycan array binding signal (z-score)", "setting": "[40]", "result": -0.217}, {"measurement": "glycan array binding signal (z-score)", "setting": "[41]", "result": 6.01}, {"measurement": "glycan array binding signal (z-score)", "setting": "[42]", "result": -0.113}, {"measurement": "glycan array binding signal (z-score)", "setting": "[43]", "result": -0.23}, {"measurement": "glycan array binding signal (z-score)", "setting": "[44]", "result": -0.206}, {"measurement": "glycan array binding signal (z-score)", "setting": "[45]", "result": 7.69}]}
